Laboratory results from PubChem BioAssay AID485364 (National Center for Advancing Translational Sciences (NCATS), 2010).
Several values for one entry are separate records, joined by “and”; a condition that tells them apart may be missing. Identical values can stand only once. Out of some 360,000 compounds screened, about 11,000 (3.1%) were called active. Inconclusive means that the source gave no clear call. Such entries were picked first, then a sample of the others. Calls follow the shape of the dose curve; as a rule, active = well fitted inhibition curve with a large enough effect; inconclusive = small, poorly fitted or top-dose-only effect; inactive = no such curve, though single readings can be large or run the other way. Potencies of inconclusive entries are left out as doubtful fits.

What follows are compounds tested against Schistosoma mansoni thioredoxin glutathione reductase (TGR) (UniProt Q962Y6) (assay: qHTS Assay for the Inhibitors of Schistosoma Mansoni Peroxiredoxins). Settings: purified TGR, DTNB reduction, TNB absorbance 405 nm; series mostly up to 114 µM.
Summary of the method: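 Kinetic colorimetric format: TGR-catalysed, NADPH-driven DTNB reduction monitored via TNB absorbance. Enzyme dispensed at 20 nM; compound exposure 15 min at room temperature before reaction start.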
Also: nearly all actives have a fitted effect of over 60% in size.
Potency is read from the fitted curve at half-maximal effect; tags tell the direction and shape of the fitted curve.

Structure (SMILES) | Potency
COc1ccc(N2CCN(C(=O)CCn3nc(C)c(S(=O)(=O)N4CCCC4)c3C)CC2)cc1 | inactive
COc1ccc(-c2oc3ccccc3c2C#CC(C)(C)O)cc1 | inconclusive [inhibitor, partial curve]
CCC(=O)Nc1cc(-c2nn(C)c(=O)c3ccccc23)ccc1OC | inactive
CCc1ccc(C(=O)c2cn(CC(=O)Nc3cc(C)ccc3C)c3nc(C)ccc3c2=O)cc1 | inactive
CCOc1ccccc1NC(=O)C1CCCN1C(=O)c1cccs1 (stereo not given) | inconclusive [inhibitor, single point]
Cc1[nH]nc(-c2ccc(O)c(C)c2O)c1Oc1ccccc1 | inactive
Cc1ccc2nc3c(cc(C#N)c(=O)n3CC3CCCO3)c(=O)n2c1 (stereo not given) | inconclusive [inhibitor, full curve, poor fit]
O=C(c1ccc(N2CCN(C(=O)c3ccc(F)c(F)c3)CC2)cc1)c1cccc(F)c1 | inconclusive [inhibitor, full curve]
Cc1ccc(N2C(=O)c3ccccc3C2C(=O)c2ccc(O)cc2O)cc1 (stereo not given) | inconclusive [inhibitor, partial curve]
COc1cccc(CN(C)C(=O)c2ccc(N3CCCC3)c([N+](=O)[O-])c2)c1 | inactive
COc1cc2cc(CNc3ccc(C)cc3)c(=O)n(CC(=O)Nc3ccc(F)cc3F)c2cc1OC | inconclusive [inhibitor, partial curve]
CC(=O)N1CCOc2ccc(S(=O)(=O)N(C)c3cccc(C)c3)cc21 | inactive
C=CCN1C(=O)NC(=O)/C(=C/c2cccn2C)C1=O | inconclusive [inhibitor, partial curve]
CCOC(=O)c1cnc2ccc(OCC)cc2c1NCCCN1CCOCC1 | inconclusive [inhibitor, single point]
CSc1ccc(C(C(C(=O)c2cccs2)N2CCOCC2)N2CCOCC2)cc1 (stereo not given) | inconclusive [inhibitor, partial curve]
O=C1C(=O)c2c(C(=O)c3ccccc3)coc2-c2ccccc21 | inconclusive [inhibitor, partial curve, poor fit]
Cc1ccc(CN(C)C(=O)CCc2nc3sc4c(c3c(=O)[nH]2)CCCC4)o1 | inconclusive [inhibitor, partial curve]
COc1ccccc1-c1nc(S(=O)(=O)c2ccc(Cl)cc2)c(N(C)C)o1 | inconclusive [inhibitor, full curve, poor fit]
COc1ccc(-c2noc(CC(=O)Nc3ccc(F)cc3F)n2)cc1 | inactive
COC(=O)c1cc(C(=O)OCC(=O)NNC(=O)c2cccs2)cc([N+](=O)[O-])c1 | inactive
O=C(O)[C@@H]1Cc2c([nH]c3ccccc23)C2CCC(=O)N21 (stereo not given in full) | inconclusive [inhibitor, partial curve]
CC1CCCCC1NC(=O)Cn1c(=O)oc2cc(S(=O)(=O)N3CCCC3)ccc21 (stereo not given) | inactive
CCc1nc2oc3cc(OC)ccc3c(=O)c2c(=O)n1Cc1ccco1 | active: 28.2 µM
CCOC(=O)c1c(/N=C/c2c(O)n(-c3ccc(F)cc3)c(=S)[nH]c2=O)sc2c1CCCC2 | inconclusive [inhibitor, single point]

Structure (SMILES) | Potency
CC1C/C(=N/N2C(=O)CSC2=S)CC(C)(C)C1 (stereo not given) | inconclusive [inhibitor, partial curve]
CCOc1ccccc1C(=O)N1CCN=C1SCc1cccnc1 | inconclusive [inhibitor, single point]
CCOC(=O)c1ccc(NC(=O)CC2C(=O)OCCN2CC)cc1 (stereo not given) | active: 44.7 µM and active: 22.4 µM
CC(C)(C)c1cc(CCC(=O)NCc2cccnc2)cc(C(C)(C)C)c1O | inconclusive [inhibitor, partial curve, poor fit]
COc1ccc(S(=O)(=O)N2CCN(C(=O)c3ccc(NC(C)=O)cc3)CC2)cc1 | inconclusive [inhibitor, partial curve]
O=C(NCC1CCCN(C2Cc3ccccc3C2)C1)c1cccs1 (stereo not given) | inconclusive [inhibitor, partial curve]
CCOc1ccc(S(=O)(=O)N2CCN(Cc3ccco3)CC2)cc1 | inconclusive [inhibitor, full curve, poor fit]
COc1ccc(N(CC(=O)N2CC=C(c3ccccc3)CC2)S(=O)(=O)c2c(C)noc2C)cc1 | inactive
O=C(CN1C(=O)COc2ccccc21)Nc1ccc(F)cc1 | active: 70.8 µM
CCCCC(=O)Nc1ccc(C(=O)NCCc2ccc(S(N)(=O)=O)cc2)cc1 | inconclusive [inhibitor, single point]
Cc1cc(C(F)(F)F)nn1CC(=O)NCc1ccco1 | inconclusive [inhibitor, partial curve]
Cc1ccc(C)c(NC(=O)CN(C)C(=O)CN2C(=O)C3CCCCC3C2=O)c1 (stereo not given) | inactive
CCc1ccc(CNC(=O)c2ccc(-c3nc(CS(=O)(=O)c4ccccc4)c(C)o3)cc2)cc1 | inconclusive [inhibitor, partial curve]
COC(=O)c1cc(NC(=O)c2cc(C)oc2C)cc(C(=O)OC)c1 | inconclusive [inhibitor, partial curve]
CCc1cc2c(=O)n(Cc3ccccc3)c(SC3CCOC3=O)nc2s1 (stereo not given) | inactive
CC(=O)N(C)/C=C1\Sc2ccccc2C1=O | inconclusive [inhibitor, partial curve, poor fit]
CCOc1ccccc1-c1c2cc(O)c(=O)cc-2oc2cc(O)c(O)cc12 | active: 44.7 µM
O=C(CC(SCc1ccco1)c1ccc(O)cc1)c1cccs1 (stereo not given) | active: 28.2 µM
COc1cc(C(=O)Sc2ccc(Cl)cc2)cc(OC)c1OC | inconclusive [inhibitor, full curve]
COc1cccc(N2CCN(C3C(=O)c4ccccc4N3C(C)=O)CC2)c1 (stereo not given) | inconclusive [inhibitor, partial curve]
COc1cc(Cl)c(S(=O)(=O)N2CCCC2)cc1Cl | inconclusive [inhibitor, partial curve]
CSCc1ccc(C(=O)NCc2ccc(F)cc2)cc1 | inactive
Cc1ccc(C(=O)NCC(c2cccs2)S(=O)(=O)c2cccs2)cc1 (stereo not given) | inconclusive [inhibitor, partial curve]
CCCNC(=O)c1ccc(N2CCC3(CC2)CC(c2ccccc2)=NO3)c([N+](=O)[O-])c1 | inactive

Structure (SMILES) | Potency
COc1ccccc1/C=C/c1nc(C#N)c(N(C)C)o1 | inconclusive [inhibitor, single point]
Oc1c(Br)cc2oc3c(c2c1CNCc1ccccc1)CCCC3 | inconclusive [inhibitor, single point]
CN(C)S(=O)(=O)c1cccc(-c2csc(N/N=C/c3ccco3)n2)c1 | inconclusive [inhibitor, partial curve]
COc1ccc(N2CCN(CC(=O)Nc3ccccc3C(=O)NCc3ccccc3)CC2)cc1 | inactive
O=C(NCc1ccco1)c1cnn2c(C(F)(F)F)cc(-c3ccccc3)nc12 | inconclusive [inhibitor, partial curve]
O=C(NCc1ccccn1)c1ccc(-c2ccccc2)cc1 | inactive
CS(=O)(=O)c1ccc(Oc2ccc(-c3nnco3)cc2)c([N+](=O)[O-])c1 | inconclusive [inhibitor, partial curve]
COc1ccccc1CN1CCNC(=O)C1CC(=O)N(C)CC1CCOCC1 (stereo not given) | active: 50.1 µM
CCOc1ccc(Br)cc1C1=NN(C(C)=O)C(c2ccc([N+](=O)[O-])s2)O1 (stereo not given) | inconclusive [inhibitor, single point]
Cc1ccnn1CCC(=O)N1CCCC(Nc2ccc(F)c(F)c2)C1 (stereo not given) | inconclusive [inhibitor, partial curve]
COC(=O)C1=C(C)N(c2cc(C)cc(C)c2)/C(=C/c2ccco2)C1=O | inconclusive [inhibitor, full curve]
Cc1ccc(NC2=C(Cl)C(=O)OC2OC(=O)c2ccco2)cc1C (stereo not given) | inconclusive [inhibitor, partial curve, poor fit]
CCOc1ccc(NC(=O)CSc2nccn2C)cc1 | inactive
Cc1ccc(-c2nc(C)c(CCNS(=O)(=O)c3ccccc3F)s2)cc1 | inactive
Cc1cc2c(n1-c1ccc(C(=O)O)cc1)CCCCC2 | active: 25.1 µM
COC(=O)CC(c1ccc(C#N)cc1)n1c(C)ccc1C (stereo not given) | inconclusive [inhibitor, full curve, poor fit]
CCc1cc2c(=O)c(-c3nc4ccccc4n3C)c(C)oc2c(CN2CCOCC2)c1O | inconclusive [inhibitor, partial curve]
C=CCc1c(C)nc(-c2ccccc2)nc1N/N=C/c1ccncc1 | inactive
COC(=O)CSc1nc(N)c(C#N)c(-c2ccco2)c1C#N | inconclusive [inhibitor, partial curve, poor fit]
O=C(O)c1ccc(S(=O)(=O)/N=C2\C=C(Nc3ccccc3F)C(=O)c3ccccc32)cc1 | active: 44.7 µM
CCC(=O)N1c2ccccc2NC2=C(C(=O)CC(c3ccco3)C2)C1c1ccco1 (stereo not given) | inconclusive [inhibitor, partial curve]
N#CC(C#N)=C1C=CC=CN1/C(=C\c1ccco1)C(=O)c1ccc(-c2ccccc2)cc1 | inconclusive [inhibitor, full curve, poor fit]
